± gives the uncertainty stated by the source. In all, about 9,900 compounds were measured (“viability index relative to DMSO control”: median about 1, lowest 2% from about 0.85 on). This is one part of the list.
What follows are molecules tested on Plasmodium falciparum NF54 stage V gametocytes (assay: viability index relative to DMSO control (fraction); higher = less gametocyte killing). Details: 2.5 µM, library set: Broad Institute DOS, incubation time: 72 h.
In short: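 Compound at 2.5 µM was incubated for 72 hr at 37°C under low oxygen with P. falciparum NF54 stage V gametocytes (0.75% gametocytemia, 1.25% hematocrit, 10 µl, serum-free screening medium) in 1,536-well plates. Staining used 3 µl of 2.5 µM MitoTracker Red CMXRos plus 0.13% saponin for one to two hours, and red particles of 20–70 µm2 were counted in one imaged field per well. Each viability index is that count relative to the plate mean of solvent-only wells.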
`O=C(NCC[C@@H]1CC[C@H](NC(=O)c2ccccc2F)[C@H](CO)O1)c1cnccn1` gave a viability index of 0.934 ± 0.11.
With `CNC(=O)C[C@@H]1CC[C@H]2[C@@H](COC[C@H](O)CN2Cc2ccccc2F)O1` the viability index was 1.09 ± 0.044.
`COCC(=O)N(C[C@@H]1[C@@H](c2ccccc2)[C@@H](CO)N1C(=O)NC(C)C)C(C)C` gave a viability index of 0.965 ± 0.022.
Molecule `CCCNC(=O)N1C[C@@H]2[C@H](c3ccccc31)[C@H](CO)N2C(=O)CN1CCOCC1` has a viability index of 1.08 ± 0.081.
`CC(C)C[C@H]1COCc2cn(nn2)CC[C@@H](C)C(=O)N1` showed a viability index of 1.08 ± 0.018.
For `COc1ccc2c3c([nH]c2c1)[C@H](CO)N(C[C@]31CN(C1)C(=O)c1cccnc1)C(=O)CN(C)C`, the viability index was 0.992 ± 0.042.
`C/C=C/c1ccc([C@H]2[C@H]3CNC[C@@H]2N3S(=O)(=O)Cc2ccccc2)cc1` showed a viability index of 1.06 ± 0.047.
`COc1ccc(CN(C)C[C@H]2OCc3cnnn3CCCC(=O)N([C@H](C)CO)C[C@H]2C)cc1` gave a viability index of 1.017 ± 0.0013.
With `C[C@H]1CN([C@@H](C)CO)C(=O)c2cc(Br)cnc2O[C@H]1CN(C)Cc1ccc(Oc2ccccc2)cc1` the viability index was 1.005 ± 0.0062.
Molecule `COCCNC(=O)C[C@@H]1CC[C@H]2[C@@H](COc3ccc(NC(=O)Nc4cccc(F)c4)cc3C(=O)N2C)O1` has a viability index of 1.08 ± 0.08.
`C/C=C/c1ccccc1[C@H]1[C@@H](CO)N(C(=O)NC2CCCCC2)[C@H]1C#N` showed a viability index of 1.13 ± 0.092.
`CCCC(=O)Nc1ccc2c(c1)OC[C@@H](C)N(C(=O)c1cccnc1)C[C@H](C)[C@H](OC)CN(C)C2=O` was tested, and the viability index was 1.112 ± 0.009.
Work on `CO[C@@H](C(=O)N(C)C[C@@H]1OCc2ccccc2-c2ccccc2C(=O)N([C@@H](C)CO)C[C@H]1C)c1ccccc1` yielded a viability index of 0.981 ± 0.054.
Molecule `CN(C)C(=O)C[C@H]1C=C[C@@H](NC(=O)c2ccc(F)cc2)[C@H](CO)O1` has a viability index of 1.06 ± 0.019.
In the case of `CCC(=O)N1[C@@H]2CN(C(=O)Nc3ccc(Cl)cc3)c3ccccc3[C@@H]2[C@@H]1CO`, the viability index is reported as 1.02 ± 0.017.
Work on `C[C@@H](NC(=O)C[C@H]1CC[C@@H]2[C@H](COC[C@@H](O)CN2Cc2ccc(C(F)(F)F)cc2)O1)c1ccccc1` yielded a viability index of 0.9941 ± 0.00089.
Molecule `Cc1ccc(S(=O)(=O)Nc2ccc3c(c2)C(=O)N(C)[C@@H]2CC[C@H](CC(=O)NCCc4ccncc4)O[C@H]2CO3)cc1` has a viability index of 1.04 ± 0.026.
For `CN1CCN(C(=O)C[C@@H]2CC[C@H]3[C@@H](COc4ccc(NC(=O)c5cccs5)cc4C(=O)N3C)O2)CC1`, the viability index was 1.048 ± 0.0044.
Molecule `N#C[C@@H]1[C@H](c2ccccc2)[C@@H](CO)N1C(=O)c1ccc2c(c1)OCO2` has a viability index of 1.11 ± 0.041.
`N#C[C@@H]1N[C@@H](CO)[C@@H]1c1ccc(C2=CCCC2)cc1` was tested, and the viability index was 1.11 ± 0.038.
Molecule `COCC(=O)N(C)C[C@@H]1[C@@H](c2ccccc2)[C@H](CO)N1C(=O)Cc1ccncc1` has a viability index of 1 ± 0.051.
Work on `O=C(Nc1cccc(Cl)c1)N1C[C@H]2[C@@H](c3ccccc31)[C@H](CO)N2Cc1cccnc1` yielded a viability index of 1.03 ± 0.07.
`C/C=C/c1ccc([C@@H]2[C@H](CO)N[C@H]2CNS(=O)(=O)c2ccccc2)cc1` was tested, and the viability index was 1 ± 0.079.
`O=C(Nc1ccc2c(c1)[C@H]1C[C@@H](CC(=O)N3CCCCC3)O[C@H](CO)[C@H]1O2)NC1CCCCC1` showed a viability index of 1.13 ± 0.038.
With `CCCC(=O)Nc1ccc2c(c1)C(=O)N(C)C[C@@H](OC)[C@@H](C)CN(Cc1ccc(F)cc1)[C@H](C)CO2` the viability index was 1.01 ± 0.034.
In the case of `CC(C)NC(=O)Nc1ccc2c(c1)C(=O)N(C)[C@@H]1CC[C@H](CC(=O)NCc3ccc(F)cc3)O[C@H]1CO2`, the viability index is reported as 1 ± 0.064.
For `COc1ccc(S(=O)(=O)N(C)C[C@H]2Oc3ccc(NC(=O)Nc4ccc(C(F)(F)F)cc4)cc3C(=O)N([C@H](C)CO)C[C@@H]2C)cc1`, the viability index was 1.02 ± 0.028.
With `C[C@@H](NC(=O)C[C@@H]1CC[C@H]2[C@@H](COc3ccc(NS(=O)(=O)c4ccc(Cl)cc4)cc3C(=O)N2C)O1)c1ccccc1` the viability index was 1.02 ± 0.056.
`N#C[C@@H]1[C@@H](c2ccc(C3=CCCCC3)cc2)[C@H](CO)N1S(=O)(=O)c1ccccc1` was tested, and the viability index was 1.12 ± 0.024.
For `COCC(=O)N1[C@H](C#N)[C@H](c2ccccc2-c2ccccc2F)[C@@H]1CO`, the viability index was 1.07 ± 0.013.
In the case of `O=C(C[C@H]1CC[C@@H]2[C@H](COC[C@@H](O)CN2C(=O)Cc2ccccc2)O1)NC1Cc2ccccc2C1`, the viability index is reported as 1.1 ± 0.052.
`O=C(NCC[C@H]1CC[C@H](NC(=O)c2ccccc2F)[C@H](CO)O1)c1cnccn1` was tested, and the viability index was 0.94 ± 0.091.
Work on `O=C(c1ccccn1)N1C[C@H]2[C@@H](c3ccccc31)[C@@H](CO)N2C(=O)Nc1ccccc1Cl` yielded a viability index of 1.05 ± 0.026.
`C[C@H]1CCCCO[C@@H](CN(C)Cc2ccncc2)[C@@H](C)CN([C@@H](C)CO)C(=O)c2cc(NS(=O)(=O)c3ccc(Cl)cc3)ccc2O1` gave a viability index of 0.992 ± 0.046.
`C[C@H]1CCCCO[C@H](CN(C)C(=O)c2ccncc2)[C@@H](C)CN([C@@H](C)CO)C(=O)c2cc(NC(=O)CCC(F)(F)F)ccc2O1` showed a viability index of 1.02 ± 0.015.
`Cc1noc(C)c1S(=O)(=O)N(C)C[C@H]1Oc2ccc(NC(=O)c3ccncc3)cc2CC(=O)N([C@H](C)CO)C[C@H]1C` showed a viability index of 0.934 ± 0.27.
In the case of `Cn1cnc(S(=O)(=O)N[C@H]2CC[C@H](CC(=O)NCC3CCCCC3)O[C@H]2CO)c1`, the viability index is reported as 0.989 ± 0.11.
In the case of `O=C1N[C@H](c2ccccc2)COCc2cnnn2CC[C@@H]1Cc1ccc(C(F)(F)F)cc1`, the viability index is reported as 0.97 ± 0.03.
`CCS(=O)(=O)N1CCCCN2[C@H](CO)[C@@H](c3ccc(C#Cc4ccccn4)cc3)[C@@H]2C1` showed a viability index of 1.02 ± 0.011.
Molecule `CC(C)NC(=O)N(C)C[C@@H]1Oc2c(NS(=O)(=O)c3cccs3)cccc2C(=O)N([C@@H](C)CO)C[C@@H]1C` has a viability index of 0.947 ± 0.0099.
Work on `COc1ccc(CNC(=O)N(C)C[C@H]2OCc3ccccc3-c3c(n(C)c4ccccc34)C(=O)N([C@H](C)CO)C[C@@H]2C)cc1` yielded a viability index of 0.93 ± 0.067.
`COc1ccccc1S(=O)(=O)N1C[C@@H]2N[C@H](C1)[C@H]2c1ccc(-c2cccnc2)cc1` showed a viability index of 1.1 ± 0.066.
Work on `CC[C@@H]1C/C=C\C[C@@H](c2ccccc2)NC(=O)CCC(=O)N1` yielded a viability index of 1.104 ± 0.0096.
`CNC[C@H]1OCCCC[C@H](C)Oc2ccc(NS(=O)(=O)c3ccc(F)cc3)cc2C(=O)N([C@H](C)CO)C[C@@H]1C` showed a viability index of 1.02 ± 0.045.
`CCCC(=O)Nc1ccc2c(c1)OC[C@@H](C)N(CC1CCOCC1)C[C@H](C)[C@H](OC)CN(C)C2=O` showed a viability index of 1.005 ± 0.0063.
`Cc1ccccc1-c1ccc([C@@H]2[C@@H]3CN(C(=O)C4CCOCC4)C[C@H]2N3)cc1` gave a viability index of 1.1 ± 0.058.
`C[C@@H]1CN([C@H](C)CO)C(=O)CCCn2nncc2CO[C@@H]1CN(C)Cc1cccc(C(F)(F)F)c1` gave a viability index of 1.04 ± 0.039.
In the case of `COc1ccc2c3c([C@@H](CO)N(Cc4cc(OC)cc(OC)c4)C[C@]33CN(C3)C(=O)CN3CCOCC3)n(C)c2c1`, the viability index is reported as 0.879 ± 0.02.
`C[C@@H]1CN([C@@H](C)CO)C(=O)CCCn2nncc2CO[C@H]1CN(C)S(=O)(=O)c1ccc(Oc2ccccc2)nc1` showed a viability index of 1 ± 0.074.
Molecule `CCCC(=O)Nc1ccc2c(c1)C(=O)N(C)C[C@H](OC)[C@@H](C)CN(C(=O)c1ccccn1)[C@@H](C)CO2` has a viability index of 1.02 ± 0.062.
For `O=C(C1CCC1)N1CCCCN2[C@H](CO)[C@H](c3ccc(-c4ccncc4)cc3)[C@H]2C1`, the viability index was 1.07 ± 0.014.
`C[C@@H]1CN([C@@H](C)CO)C(=O)c2cc(/C=C/c3ccccc3)cnc2O[C@H]1CN(C)S(=O)(=O)c1ccccc1F` was tested, and the viability index was 1.04 ± 0.023.
`OC[C@@H]1Nc2ccc(C#Cc3ccc(F)cc3)cc2[C@H]2[C@@H]1CCN2Cc1ccc2c(c1)OCO2` gave a viability index of 1.02 ± 0.041.
`CN1C(=O)c2cc(NC(=O)c3cccc(C(F)(F)F)c3)ccc2OC[C@H]2O[C@H](CC(=O)NCCN3CCCC3)CC[C@H]21` was tested, and the viability index was 0.976 ± 0.093.
Work on `C/C=C/c1ccc([C@H]2[C@H](CO)N(S(=O)(=O)Cc3ccccc3)C23CN(C(=O)C2CCCC2)C3)cc1` yielded a viability index of 1.08 ± 0.037.
`CN1CCN(C(=O)c2cc3c(c(-c4cccc(-c5cccnc5)c4)n2)[C@@H](CCO)N(C(=O)CC2CC2)C3)CC1` showed a viability index of 1.03 ± 0.14.
For `O=C(C[C@@H]1C[C@@H]2c3cc(NC(=O)c4ccc5c(c4)OCO5)ccc3O[C@@H]2[C@H](CO)O1)NCCN1CCCCC1`, the viability index was 1.09 ± 0.04.
In the case of `Fc1ccccc1-c1ccc([C@@H]2[C@@H]3CN(Cc4ccccn4)C[C@H]2N3)cc1`, the viability index is reported as 0.929 ± 0.062.
Work on `Cc1ccc(S(=O)(=O)Nc2ccc3c(c2)C(=O)N([C@H](C)CO)C[C@@H](C)[C@H](CN(C)Cc2ccc(C(F)(F)F)cc2)O3)cc1` yielded a viability index of 1.03 ± 0.044.
With `CN(C)CC(=O)N1[C@H](CO)[C@H](c2ccccc2)C12CN(CCC(F)(F)F)C2` the viability index was 1.02 ± 0.013.
Work on `COc1ccccc1-c1ccc([C@@H]2[C@H]3CN(C(=O)c4cccnc4)CCCCN3[C@H]2CO)cc1` yielded a viability index of 0.9804 ± 0.0045.
`C/C=C/c1ccc2n(c1=O)C[C@@H]1[C@@H](CO)[C@H](C(=O)N[C@H](C)c3ccccc3)N(C(=O)c3ccccn3)[C@H]21.C/C=C\c1ccc2n(c1=O)C[C@@H]1[C@@H](CO)[C@H](C(=O)N[C@H](C)c3ccccc3)N(C(=O)c3ccccn3)[C@H]21` was tested, and the viability index was 1.04 ± 0.021.
`Cn1cnc(S(=O)(=O)N2C[C@@H](O)COC[C@H]3O[C@@H](CC(=O)NCc4cccc(F)c4)CC[C@@H]32)c1` gave a viability index of 1.02 ± 0.049.
Work on `O=C(NC1CCCCC1)N1CC2(C1)[C@H](c1ccccc1)[C@H](CO)N2CC1CCCC1` yielded a viability index of 1.1 ± 0.13.
`C[C@@H]1CN([C@@H](C)CO)C(=O)c2cc(NC(=O)Nc3ccccc3)ccc2O[C@@H]1CN(C)Cc1ccccc1` gave a viability index of 1.06 ± 0.11.
`C[C@H]1CCCCO[C@@H](CN(C)CC2CCCCC2)[C@@H](C)CN([C@@H](C)CO)C(=O)c2cc(NS(C)(=O)=O)ccc2O1` showed a viability index of 1.076 ± 0.0073.
`CO[C@@H]1CC[C@@H]2CCOc3c(C#N)cccc3C(=O)N(C)CCCC(=O)N(C)C[C@H]1O2` was tested, and the viability index was 0.98 ± 0.045.
With `CC(C)NC(=O)N1[C@@H]2CNC[C@H]1[C@@H]2c1ccc(/C=C/c2ccccc2)cc1` the viability index was 1.06 ± 0.068.
`CCCC#Cc1ccc2c(c1)O[C@@H](CN(C)Cc1ccccn1)[C@H](C)CN([C@H](C)CO)S2(=O)=O` was tested, and the viability index was 0.865 ± 0.088.
`CCCNC(=O)N1C[C@]2(CN(Cc3cccc(F)c3)C2)c2c([nH]c3cc(OC)ccc23)[C@@H]1CO` showed a viability index of 0.903 ± 0.12.

Source: the supplement of paper PMC4723716
